The campaign covered roughly 39,000 compounds. About 220 (0.56%) showed activity. Some of the results follow.
system: Escherichia coli K-12 BW25113; assay: relative growth (OD600 normalised to plate interquartile mean) (fraction); higher = less growth inhibition, active = 0.2 or less; conditions: 50 µM; LB; incubation time: overnight (16-24 h)
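Also: static incubation at 37 °C against the wild-type strain, values averaged over two biological replicates.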

SMILES	relative growth
Cc1noc(C)c1S(=O)(=O)N(C)C[C@@H]1OCc2cnnn2CCCC(=O)N([C@H](C)CO)C[C@@H]1C	inactive: 1.01
COc1ccc(NC(=O)Nc2cccc3c2O[C@H](CN(C)C(=O)Nc2cccc4ccccc24)[C@@H](C)CN([C@@H](C)CO)C3=O)cc1	inactive: 1.03
COc1cc(O)c2c(c1)C(=O)c1cc(C)cc(O)c1C2=O	inactive: 0.982
C[C@H]1CN([C@@H](C)CO)C(=O)c2cccc(NC(=O)c3nc4ccccc4s3)c2O[C@H]1CN(C)C(=O)Nc1ccc(F)cc1	inactive: 1.04
Nc1nc(Cl)nc2c1ncn2[C@H]1C[C@@H](O)[C@@H](CO)O1	inactive: 0.961
CC(=O)N1CCc2nc(C(N)=O)sc2CC1	inactive: 1.01
C[C@H](CO)N1C[C@H](C)[C@H](CN(C)Cc2ccc(Oc3ccccc3)cc2)Oc2ccc(NC(=O)Nc3ccc4c(c3)OCO4)cc2CC1=O	inactive: 1.04
O=C(C[C@@H]1C[C@H]2c3cc(NS(=O)(=O)c4ccccc4)ccc3O[C@H]2[C@H](CO)O1)NC1CCCCC1	inactive: 1
Cc1noc(C)c1NC(=O)Nc1ccc2c(c1)C(=O)N([C@@H](C)CO)C[C@@H](C)[C@@H](CN(C)C(=O)Nc1ccc(F)cc1)OCCCC[C@@H](C)O2	inactive: 1.01
COCCNC(=O)C[C@@H]1CC[C@H]2[C@@H](COC[C@H](O)CN2S(=O)(=O)c2ccccc2C)O1	inactive: 0.98
C[C@@H]1CCCCO[C@@H](CN(C)S(=O)(=O)c2cccs2)[C@H](C)CN([C@@H](C)CO)C(=O)c2cc(NC(=O)Nc3cccc4ccccc34)ccc2O1	inactive: 1.03
CCOC(=O)n1ccn(C)c1=S	inactive: 1.09
COCC(=O)NS(=O)(=O)c1ccccc1	inactive: 1.01
C[C@H](CO)N1C[C@H](C)[C@H](CN(C)S(=O)(=O)c2ccc(C#N)cc2)Oc2ncc(C#Cc3ccc(F)cc3)cc2C1=O	inactive: 0.98
COc1ccc(CN(C)C[C@H]2Oc3ccc(NS(=O)(=O)c4cn(C)cn4)cc3C(=O)N([C@@H](C)CO)C[C@@H]2C)cc1	inactive: 1.01
CCOC(=O)c1cc2c(c(-c3cccc(-c4cccc(OC)c4)c3)n1)[C@H](CCO)N(S(=O)C(C)(C)C)C2 (stereo partly drawn)	inactive: 1.03
C[C@H]1CCCCO[C@@H](CN(C)CC2CCCCC2)[C@@H](C)CN([C@@H](C)CO)C(=O)c2cc(NC(=O)Nc3cccc4ccccc34)ccc2O1	inactive: 0.969
Cc1noc(C)c1S(=O)(=O)N(C)C[C@@H]1Oc2ccc(NS(=O)(=O)c3ccc(F)cc3)cc2CC(=O)N([C@@H](C)CO)C[C@H]1C	inactive: 1.01
